Data taken from ChEMBL document CHEMBL5154759, “Discovery of Aryl Benzoyl Hydrazide Derivatives as Novel Potent Broad-Spectrum Inhibitors of Influenza A Virus RNA-Dependent RNA Polymerase (RdRp)” (J Med Chem, 2022).

Tested on: Influenza A virus
Assay: microbe, parasite or virus in culture
Settings: (A/PR/8/34) H1N1, MDCK, 48 h

Row | SMILES | EC50 [nM]
1 | CN(C)c1ccc(C(=O)NNc2c(Br)cccc2Br)cc1 | 461
2 | CCOc1ccc(C(=O)NNc2c(Br)cccc2Br)cc1 | 57
3 | CC(C)(C)c1ccc(C(=O)NNc2c(Br)cccc2Br)cc1 | 74
4 | COc1ccc(C(=O)NNc2c(Br)cccc2Br)cc1 | 4900
5 | CCc1ccc(C(=O)NNc2c(Br)cccc2Br)cc1 | 180
6 | O=C(NNc1c(Br)cccc1Br)c1ccccc1 | 143000
7 | O=C(NNc1c(Br)cccc1Br)c1ccc(N2CCOCC2)cc1 | 53
